Measurements from paper PMC8971425.
Results are given in words; binding and its absence hold for the method and conditions named. Binding seen in cells or lysates may run through a third protein. Some results given as binding are weak or reduced against the parent protein; the word gives no strength.

By UniProt entry, the sequences of proteins in these tests, tags left out. Residues count along the entry.
UniProt Q9EP73, residues 19-290: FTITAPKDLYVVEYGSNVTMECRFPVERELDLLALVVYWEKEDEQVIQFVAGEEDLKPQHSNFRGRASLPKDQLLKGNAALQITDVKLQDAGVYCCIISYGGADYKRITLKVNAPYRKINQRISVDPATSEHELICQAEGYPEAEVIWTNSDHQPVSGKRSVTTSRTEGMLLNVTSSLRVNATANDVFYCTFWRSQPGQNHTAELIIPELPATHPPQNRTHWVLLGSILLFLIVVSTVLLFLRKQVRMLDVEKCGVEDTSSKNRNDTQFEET
UniProt Q9NZQ7, residues 19-290: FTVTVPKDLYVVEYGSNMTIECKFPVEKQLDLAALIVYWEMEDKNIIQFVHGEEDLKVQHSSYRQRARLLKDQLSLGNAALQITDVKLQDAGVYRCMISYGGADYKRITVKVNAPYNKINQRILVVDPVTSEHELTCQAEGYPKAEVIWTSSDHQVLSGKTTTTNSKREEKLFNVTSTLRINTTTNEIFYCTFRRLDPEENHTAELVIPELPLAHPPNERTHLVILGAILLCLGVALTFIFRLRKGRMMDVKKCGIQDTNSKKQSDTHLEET

Tests used:
[1] = biological target: PD-L1, endogenous in CT26 cells (mouse (endogenous in CT26)) (UniProt Q9EP73); experiment: co-IP; endogenous proteins; anti-PD-L1 immunoprecipitates from CT26 and PC9 cell lysates; immunoblot
[2] = biological target: PD-L1, endogenous in PC9 cells (human (endogenous in PC9)) (UniProt Q9NZQ7); experiment: as above

B1: USP8, endogenous in CT26 cells (enzyme, UniProt Q80U87 1-1080)
chain: MPAVASVPKELYLSSSLKDLNKKTEVKPEKTSTKNYIHSAQKIFKTAEECRLDRDEERAYVLYMKYVAVYNLIKKRPDFKQQQDYYLSILGPANIKKAIEEAERLSESLKLRYEEAEVRKQLEEKDRREEEQLQQQKRQEMGREDSGAAAKRSVENLLDSKTKTQRINGEKSEGAAAAERGAITAKELYTMMMDKNTSLIIMDARKIQDYQHSCILDSLSVPEEAISPGVTASWIEANLSDDSKDTWKKRGSVDYVVLLDWFSSAKDLLLGTTLRSLKDALFKWESKTVLRHEPLVLEGGYENWLLCYPQFTTNAKVTPPPRSRAEEVSVSLDFTYPSLEEPVPSKLPTQMPPPPIETNEKALLVTDQDEKLRLSTQPALAGPGAAPRAEASPIIQPAPATKSVPQVDRTKKPSVKLPEDHRIKSENTDQSGRVLSDRSTKPVFPSPTTMLTDEEKARIHQETALLMEKNKQEKELWDKQQKEQKEKLRREEQERKAGKTQDADERDSTENQHKAKDGQEKKDSKQTKTEDRELSADGAQEATGTQRQSKSEHEASDAKVPVEGKRCPTSEAQKRPADVSPASVSGELNAGKAQREPLTRARSEEMGRIVPGLPLGWAKFLDPITGTFRYYHSPTNTVHMYPPEMAPSSAPPSTPPTHKVKPQVPAERDREPSKLKRSYSSPDITQALQEEEKRRPAVTPMVNRENKPPCYPKAEISRLSASQIRNLNPVFGGSGPALTGLRNLGNTCYMNSILQCLCNAPHLADYFNRNCYQDDINRSNLLGHKGEVAEEFGIIMKALWTGQYRYISPKDFKVTIGKINDQFAGSSQQDSQELLLFLMDGLHEDLNKADNRKRHKEENNEHLDDLQAAEHAWQKHKQLNESIIVALFQGQFKSTVQCLTCRRRSRTFEAFMYLSLPLASTSKCTLQDCLRLFSKEEKLTDNNRFYCSHCRARRDSLKKIEIWKLPPVLLVHLKRFSYDGRWKQKLQTSVDFPLENLDLSQYVIGPKNSLKKYNLFSVSNHYGGLDGGHYTAYCKNAARQRWFKFDDHEVSDISVSSVRSSAAYILFYTSLGPRITDVAT
Q: How did the binding [1] turn out when B1 was run?
A: binds

B2: USP8, endogenous in PC9 cells (enzyme, UniProt P40818 1-1118)
chain: MPAVASVPKELYLSSSLKDLNKKTEVKPEKISTKSYVHSALKIFKTAEECRLDRDEERAYVLYMKYVTVYNLIKKRPDFKQQQDYFHSILGPGNIKKAVEEAERLSESLKLRYEEAEVRKKLEEKDRQEEAQRLQQKRQETGREDGGTLAKGSLENVLDSKDKTQKSNGEKNEKCETKEKGAITAKELYTMMTDKNISLIIMDARRMQDYQDSCILHSLSVPEEAISPGVTASWIEAHLPDDSKDTWKKRGNVEYVVLLDWFSSAKDLQIGTTLRSLKDALFKWESKTVLRNEPLVLEGGYENWLLCYPQYTTNAKVTPPPRRQNEEVSISLDFTYPSLEESIPSKPAAQTPPASIEVDENIELISGQNERMGPLNISTPVEPVAASKSDVSPIIQPVPSIKNVPQIDRTKKPAVKLPEEHRIKSESTNHEQQSPQSGKVIPDRSTKPVVFSPTLMLTDEEKARIHAETALLMEKNKQEKELRERQQEEQKEKLRKEEQEQKAKKKQEAEENEITEKQQKAKEEMEKKESEQAKKEDKETSAKRGKEITGVKRQSKSEHETSDAKKSVEDRGKRCPTPEIQKKSTGDVPHTSVTGDSGSGKPFKIKGQPESGILRTGTFREDTDDTERNKAQREPLTRARSEEMGRIVPGLPSGWAKFLDPITGTFRYYHSPTNTVHMYPPEMAPSSAPPSTPPTHKAKPQIPAERDREPSKLKRSYSSPDITQAIQEEEKRKPTVTPTVNRENKPTCYPKAEISRLSASQIRNLNPVFGGSGPALTGLRNLGNTCYMNSILQCLCNAPHLADYFNRNCYQDDINRSNLLGHKGEVAEEFGIIMKALWTGQYRYISPKDFKITIGKINDQFAGYSQQDSQELLLFLMDGLHEDLNKADNRKRYKEENNDHLDDFKAAEHAWQKHKQLNESIIVALFQGQFKSTVQCLTCHKKSRTFEAFMYLSLPLASTSKCTLQDCLRLFSKEEKLTDNNRFYCSHCRARRDSLKKIEIWKLPPVLLVHLKRFSYDGRWKQKLQTSVDFPLENLDLSQYVIGPKNNLKKYNLFSVSNHYGGLDGGHYTAYCKNAARQRWFKFDDHEVSDISVSSVKSSAAYILFYTSLGPRVTDVAT
Q: B2 was tested. Which binding [2] did it give?
A: binds
